# Results from paper PMC4336329 (PLoS ONE, 2015).
# About 2,200 (0.71%) of roughly 310,000 compounds showed an effect of 50% or more. The effect is printed as a negative number. The list shows a part of the results.
# Molecular target: human ether-à-go-go-related gene (hERG) potassium channel (human, UniProt Q12809)
# Assay: primary screen, population patch clamp on CHO cells stably expressing hERG
# human ether-à-go-go-related gene (hERG) potassium channel, sequence (Q12809 whole entry, looked up): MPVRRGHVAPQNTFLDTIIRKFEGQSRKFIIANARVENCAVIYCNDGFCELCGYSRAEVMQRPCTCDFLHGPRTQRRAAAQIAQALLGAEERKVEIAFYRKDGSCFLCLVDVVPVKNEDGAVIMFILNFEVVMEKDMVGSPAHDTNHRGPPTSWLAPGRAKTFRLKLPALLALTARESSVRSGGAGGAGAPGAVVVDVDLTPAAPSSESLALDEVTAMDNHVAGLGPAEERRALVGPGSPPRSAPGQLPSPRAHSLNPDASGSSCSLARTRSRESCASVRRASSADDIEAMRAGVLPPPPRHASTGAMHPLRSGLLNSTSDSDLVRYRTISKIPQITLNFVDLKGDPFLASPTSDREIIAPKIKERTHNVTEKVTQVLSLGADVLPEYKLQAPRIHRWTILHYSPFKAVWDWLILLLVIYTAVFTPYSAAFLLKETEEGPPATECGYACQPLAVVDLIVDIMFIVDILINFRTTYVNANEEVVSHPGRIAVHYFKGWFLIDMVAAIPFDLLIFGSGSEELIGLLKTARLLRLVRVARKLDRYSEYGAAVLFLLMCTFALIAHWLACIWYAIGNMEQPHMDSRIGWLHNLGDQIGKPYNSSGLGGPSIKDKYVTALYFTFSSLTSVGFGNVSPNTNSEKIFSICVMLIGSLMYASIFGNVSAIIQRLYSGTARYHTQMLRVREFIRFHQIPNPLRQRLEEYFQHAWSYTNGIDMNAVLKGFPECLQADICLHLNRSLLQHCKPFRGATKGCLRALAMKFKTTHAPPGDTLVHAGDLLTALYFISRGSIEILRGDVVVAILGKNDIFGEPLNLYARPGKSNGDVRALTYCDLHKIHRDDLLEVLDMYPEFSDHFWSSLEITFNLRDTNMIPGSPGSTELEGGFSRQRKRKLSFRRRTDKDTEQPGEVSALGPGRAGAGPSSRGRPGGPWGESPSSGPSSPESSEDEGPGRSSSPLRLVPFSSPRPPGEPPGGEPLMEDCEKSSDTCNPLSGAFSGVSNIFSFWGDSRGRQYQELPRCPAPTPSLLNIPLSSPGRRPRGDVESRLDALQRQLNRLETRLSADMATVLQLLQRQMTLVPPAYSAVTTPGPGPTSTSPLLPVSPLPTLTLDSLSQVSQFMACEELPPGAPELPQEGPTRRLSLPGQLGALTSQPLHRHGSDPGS
row,SMILES,"hERG current change (%, negative = inhibition) at 1uM"
1,CCOc1cccc(C(=O)Nc2ccc(NC(=O)c3cc4ccccc4o3)c(OC)c2)c1,18.5%
2,Cc1cc(C)c(OCC(=O)Nc2cccc(NC(=O)c3ccco3)c2)c(Br)c1,11.7%
3,N#Cc1cc(C(=O)c2cc(Cl)ccc2O)cn(-c2ccccc2)c1=O,6.09%
4,COc1ccc(NC(=O)c2cc(=O)c3ccccc3o2)cc1Cl,20%
5,COc1cc(/C=C/C(=O)O)cc(S(=O)(=O)NCc2ccco2)c1OC,10.6%
6,O=C1C(=O)c2ccccc2C([O-])=C1[n+]1ccccc1,-2.05%
7,CC12CCC(=O)N1C(C(=O)O)Cc1c2[nH]c2ccccc12 (centres unmarked),10%
8,Cc1nnc(NC(=O)C2CCCN(S(=O)(=O)c3ccccc3C(F)(F)F)C2)s1 (centres unmarked),8.48%
9,CCOc1ccc(-c2cc(C(=O)N3CCN(C)CC3)c3ccccc3n2)cc1,-0.0034%
10,CCC(=O)OCCNc1cc(Sc2nc3ccccc3s2)c2nonc2c1[N+](=O)[O-],6.31%
11,CC(C)(C)OC(=O)NCCc1nnc(SCC(=O)Nc2cccc(Cl)c2)o1,10.3%
12,S=c1[nH]c2ccccc2n2c(=S)[nH]nc12,16.3%
13,COc1cc2c3c(c1)c(N=NC(N)=S)c(O)n3C(C)(C)C=C2C,18.4%
14,O=C(CN(C(=O)c1csnn1)c1ccc(Cl)cc1)NC1CCCC1,11.2%
15,CCN(C(=O)C1CC1)C1CCS(=O)(=O)C1 (centres unmarked),9.67%
16,COc1cccc(-c2cc(C(F)(F)F)c3c(N)c(C#N)sc3n2)c1,11.3%
17,O=c1c2ccccc2nc(SCc2ccncc2)n1CC1CCCO1 (centres unmarked),-17.8%
18,C/C=C\C=C/C(=O)Nc1cccc(C2=NOC3(C2)C[C@@H](C(N)=O)N(C(=O)C2(C)CC2)C3)c1 (some centres unmarked),8.83%
19,C=CCN(C(=O)CN1CCOCC1)c1nc(C)c(-c2ccccc2)s1,10.3%

row,SMILES,"hERG current change (%, negative = inhibition) at 1uM"
1,Cc1ccc(N(CC(O)CN2CCCCC2)S(=O)(=O)c2ccccc2)cc1 (centres unmarked),-68.7%
2,COc1ccc(/C=N/n2c(-c3ccccc3)n[nH]c2=S)cc1,-4.75%
3,Cc1cnc(C(=O)OCC(=O)c2ccc[nH]2)cn1,21.4%
4,Cc1nc2ccc(S(=O)(=O)NCC(=O)Nc3cccc(F)c3)cc2s1,8.18%
5,Cc1ccc(N(CC(=O)NCc2ccccc2)C(=O)CCC(=O)Nc2ccccn2)c(C)c1,11.7%
6,Cc1ccc(-c2nnc3ccc(SCC(=O)N4CCCc5ccccc54)nn23)cc1,11.8%
7,O=C(NNC(=O)c1ccccc1F)c1ccc(Cl)c(S(=O)(=O)N2CCOCC2)c1,9.72%
8,Cc1cc(C)c(S(=O)(=O)/N=C2/C=C(Sc3ncn[nH]3)C(=O)c3ccccc32)cc1C,15.2%
9,CCOC(=O)c1cnn(-c2ccccc2)c1-n1cccc1C(=O)C(=O)N(CC)CC,8.14%
10,Cc1nc2n(n1)C(c1ccccc1)C1=C(CC(c3ccco3)CC1=O)N2 (centres unmarked),8.8%
11,COc1ccc(CNC(=O)c2ccc3ccccc3n2)cc1OC,16.9%
12,CN1CCN(c2c(N)c(=O)oc3ccccc23)CC1,-7.56%
13,O=c1c(/C=N/OCc2ccc(Cl)cc2Cl)c[nH]n1-c1cccc(Cl)n1,13.8%
14,Cn1nnnc1SCC(=O)N1CCc2ccccc2C1,6.58%
15,COCC(=O)N1CCN(c2cccc(C(F)(F)F)c2)CC1.Cl,6.09%
16,CCCCn1c(Cn2nc(C(=O)O)c3ccccc3c2=O)nc2cc(S(N)(=O)=O)ccc21,12.7%
17,CCNC(=S)N(CCCO)Cc1cc2cc3c(cc2[nH]c1=O)OCCO3,11.4%
18,O/N=C\c1cccn1-c1ccc(Br)cc1,10.6%
19,COc1cccc(OC)c1NC(=O)C1CCCN1C(=O)Nc1cccc(Cl)c1 (centres unmarked),6.74%

row,SMILES,"hERG current change (%, negative = inhibition) at 1uM"
1,O=[N+]([O-])c1ccc(N=Cc2c(O)ccc3ccccc23)cc1,7.86%
2,Cc1ccc2c(C(=O)CN3CCCCC3CCO)c(C)[nH]c2c1 (centres unmarked),6.91%
3,CC(C)CCN1CCN(Cc2ccc(N3CCNC3=O)cc2)CC1CCO (centres unmarked),-2.5%
4,CCCCn1c(N)c(N(CCOC)C(=O)c2ccc(N3C(=O)CCC3=O)cc2)c(=O)[nH]c1=O,9.15%
5,Cc1ccc(CNC(=O)c2ccccc2NS(=O)(=O)c2ccc(Cl)nc2)cc1,9.75%
6,Cc1cc([N+](=O)[O-])c(C)cc1-c1ccc(/C=N/NC(=O)c2cccnc2)o1,2.63%
7,CSCCC(=O)N1CC[C@@H](N2CCN(c3ccccc3F)CC2)[C@H](O)C1,8.82%
8,Cc1cccc(NC(=O)[C@H](Cc2ccccc2)NC(=O)[C@@H]2Cc3ccccc3CN2)c1,11.1%
9,N#Cc1c(-c2ccccc2)c(C#N)c2nc3ccccc3n2c1N,11.6%
10,C=Cn1ccnc1P(=S)(c1nccn1C=C)c1nccn1C=C,16.5%
11,CCCCN(C)C(=O)c1nc2ccccn2c1CNCCCn1ncc2ccccc21,-13.9%
12,CCC/C(=N\NC(=O)c1ccco1)c1ccc(Cl)s1,9.1%
13,CN(C)CCOCCOc1ccc(Cl)cc1C(C)(C)C.O=C(O)C(=O)O,19.6%
14,Cc1ccc2c(c1)c1cccc3c1n2CCN3CCC(N)=O,6.55%
15,O=C(N/N=C/c1cc2cc3c(cc2nc1Cl)OCO3)c1ccncc1,15.6%
16,COc1ccc(/C=C/C(=O)OCC(=O)NCCC2=CCCCC2)cc1,11%
17,Cc1occc(=O)c1OCc1c(Cl)cccc1Cl,12.9%
18,C[C@@]12C(=O)N(c3cccc(F)c3)C(=O)N1[C@H](c1ccc(F)cc1)[C@@H]1C(=O)N(C3CCCCC3)C(=O)[C@@H]12,11.4%
